Measurements reported in paper PMC4336329 (PLoS ONE, 2015).
Hit rate of the full screen: of about 310,000 compounds, about 14,000 (4.5%) showed an effect of 50% or more. Effects have a minus sign here. This is one part of the list.

The molecules below were run against human ether-à-go-go-related gene (hERG) potassium channel (human, UniProt Q12809) (assay: primary screen, population patch clamp on CHO cells stably expressing hERG).
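Note: peak tail current of the secondary pulse compared with the same well before compound.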

Chain of human ether-à-go-go-related gene (hERG) potassium channel (Q12809 whole entry, looked up): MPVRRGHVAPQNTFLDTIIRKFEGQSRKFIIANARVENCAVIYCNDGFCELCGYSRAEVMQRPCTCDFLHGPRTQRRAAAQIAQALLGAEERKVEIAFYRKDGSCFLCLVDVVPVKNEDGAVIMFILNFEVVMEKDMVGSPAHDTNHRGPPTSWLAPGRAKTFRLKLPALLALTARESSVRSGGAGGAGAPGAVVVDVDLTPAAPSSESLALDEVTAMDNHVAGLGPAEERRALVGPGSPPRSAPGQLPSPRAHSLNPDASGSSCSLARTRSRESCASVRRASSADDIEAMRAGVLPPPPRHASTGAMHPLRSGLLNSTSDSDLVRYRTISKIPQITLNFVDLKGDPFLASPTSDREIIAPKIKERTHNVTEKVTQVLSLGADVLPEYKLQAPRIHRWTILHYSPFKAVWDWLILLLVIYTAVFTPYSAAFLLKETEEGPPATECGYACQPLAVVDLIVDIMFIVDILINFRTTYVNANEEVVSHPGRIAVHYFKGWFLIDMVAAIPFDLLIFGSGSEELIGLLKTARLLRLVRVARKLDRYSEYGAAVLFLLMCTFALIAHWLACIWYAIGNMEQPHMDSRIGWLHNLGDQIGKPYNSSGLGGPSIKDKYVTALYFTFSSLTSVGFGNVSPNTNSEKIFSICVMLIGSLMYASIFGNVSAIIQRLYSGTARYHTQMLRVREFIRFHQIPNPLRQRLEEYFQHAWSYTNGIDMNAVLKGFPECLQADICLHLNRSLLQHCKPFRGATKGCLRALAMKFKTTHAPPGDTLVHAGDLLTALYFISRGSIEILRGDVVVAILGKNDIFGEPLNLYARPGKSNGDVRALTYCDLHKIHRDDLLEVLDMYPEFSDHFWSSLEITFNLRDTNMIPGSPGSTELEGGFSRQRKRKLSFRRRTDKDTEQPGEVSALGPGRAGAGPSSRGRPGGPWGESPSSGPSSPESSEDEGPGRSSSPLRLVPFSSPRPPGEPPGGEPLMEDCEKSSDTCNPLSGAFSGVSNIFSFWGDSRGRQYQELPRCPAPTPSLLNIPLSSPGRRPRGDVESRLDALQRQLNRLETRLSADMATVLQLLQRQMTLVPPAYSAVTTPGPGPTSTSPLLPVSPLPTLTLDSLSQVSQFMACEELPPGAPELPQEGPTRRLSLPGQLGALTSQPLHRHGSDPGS

SMILES	hERG current change (%, negative = inhibition) at 10uM [%]
O=C(Cc1ccc(Br)cc1)NC1CCSC1=O (stereo not shown)	31.5
CCC(=O)N1CCCc2cc(S(=O)(=O)N3CCC(N4CCCCC4)CC3)ccc21	5.89
COc1ccc(/C=C/C2=CCN(Cc3ccc(OC)cc3)CC2)cc1.Cl	-72.3
CCN(Cc1ccccc1)C(=O)CSc1n[nH]c(N)n1	33.6
CCN(CC)S(=O)(=O)c1ccc(-c2cc(C(=O)OC)sc2C(F)(F)F)cc1	12.1
CSCc1ccc(C(=O)NCCSc2ccc(Br)cc2)cc1	13.8
Cc1ccc(N/N=C/c2c(O)cc(C)oc2=O)cc1	9.54
CCN(CC)CCCN1C(=O)CSC1c1ccc2c(c1)OCO2.Cl (stereo not shown)	-39.2
CCOc1ccc(N=Nc2c(=O)[nH]n3c(=O)c4c([nH]c23)CCCC4)cc1	13.5
CCOC(=O)C1CCN(Cc2ccc(OC)cc2OC)CC1	-45.2
O=C(COC(=O)c1cccc(S(=O)(=O)N2CCc3ccccc32)c1)Nc1ncc(C(F)(F)F)cc1Cl	9.53
CCN(CC)C(=O)OCCc1cc2ccccc2c(=O)o1	15.3
CC(=O)Cc1nsc(Nc2ccc(Cl)cc2)n1	3.14
C/C(=N\NC(=O)CSCc1ccccc1Cl)c1cccc(NC(=O)c2ccccc2)c1	12.5
CCn1cnc2c1c(=O)n(CC(=O)OC(C)C(N)=O)c(=O)n2Cc1ccccc1 (stereo not shown)	22.6
CC(C)c1nc2sc3c(=S)nc[nH]c3c2c2c1CCC2	6.6
COc1ccc(/C=C(/NC(=O)c2ccc([N+](=O)[O-])cc2)C(=O)NCCCN(C)C)cc1	-93.4
C[C@H](NC(=O)Nc1ccccc1F)C(=O)O	9.74
C=CCNS(=O)(=O)c1cccc(C(C)=O)c1	8.11
O=C(NCCC1=CCCCC1)C(=O)NCCc1ccc(Cl)cc1	0.624
COC(=O)C1=C(c2ccc(Cl)c(C(F)(F)F)c2)C[C@@H]2CC[C@H]1N2C(=O)NCc1ccc2c(c1)OCO2	-12.9
CC1=C(C(=O)OC2CCCCCC2)C(c2ccc(C)o2)C2=C(CCCC2=O)N1 (stereo not shown)	8.56

SMILES	hERG current change (%, negative = inhibition) at 10uM [%]
Cc1ccc2nc(SCC(=O)NCc3ccccc3Cl)nc(=O)n2c1	-5.39
Cc1nc2nc[nH]n2c(=O)c1NS(=O)(=O)c1ccc(C(C)(C)C)cc1	20.8
N#Cc1ccccc1NC(=O)CSc1nnc(-c2ccncc2)o1	18.3
Cc1cc(C(=O)OCC(=O)Nc2cc(C(F)(F)F)ccc2N2CCOCC2)c(C)o1	-0.421
COc1ccc(C(=O)C2CCCN(C/C=C/c3ccccc3OC)C2)c(OC)c1 (stereo not shown)	-77.5
O=C(NCSc1ccnc(SCNC(=O)c2ccc(F)cc2)n1)c1ccc(F)cc1	22.7
O=C(COc1ccccc1Br)N1CCN(c2ccccc2)CC1	-5.87
CC(=O)N/C(=C/c1ccc2c(c1)OCO2)C(=O)NCCCO	23.3
O=C(Nc1ccccc1N1CCOCC1)c1ccc(Cl)nc1	5.54
CCSC1=NC(C)(C)C=C(/C=C/c2ccc(Cl)cc2Cl)N1	-7.72
C=CCNC(=S)Nc1cc(S(=O)(=O)N2CCOCC2)ccc1-n1cncn1	10.3
CC(=O)Nc1c(I)c(NC(C)=O)c(I)c(C(=O)[O-])c1I.[Na+]	19.3
CCCCn1c(C)cc2cc(O)ccc21	-16.8
COc1ccc(C(CCN(Cc2ccc(OC)c(OC)c2)C(=O)CCl)c2ccccc2)cc1 (stereo not shown)	-0.4
CCC1(c2ccccc2)NC(=O)N(CC(=O)Nc2ccc(OC)nc2)C1=O (stereo not shown)	2.19
CCC(C)NCCOc1ccc(Br)cc1.O=C(O)C(=O)O (stereo not shown)	-19.6
CCCc1cc(=O)oc2c(CN3CCN(C)CC3)c(O)ccc12	-26.8
O=C1CN=C(c2ccccc2)c2cc(Br)ccc2N1Cc1cc(=O)n2ccccc2n1	-51.7
CCOc1ccc(NC(=O)C2CCCN(S(=O)(=O)c3ccc4c(c3)CCCN4C(C)=O)C2)cc1 (stereo not shown)	-15.4
CCOc1ccc(OCC)c(NC(=O)C(NS(=O)(=O)c2ccc3c(c2)oc(=O)n3C)C(C)C)c1 (stereo not shown)	4.1
CCC(C)Sc1ccc(-c2nc3ccc(C)cn3c2NC2CCCCC2)cc1.O=C(O)C(F)(F)F (stereo not shown)	2.54
COc1cc(NC(=O)C2CCN(S(=O)(=O)c3ccc(N4CCCC4=O)cc3)CC2)cc(OC)c1	-8.42

SMILES	hERG current change (%, negative = inhibition) at 10uM [%]
Cc1ccc(OCc2nnc(SCc3nc4ccccc4[nH]3)n2Cc2ccco2)cc1	-25.5
C=CCN1C(=O)c2ccc(C(=O)N(CCC)CC(=O)Nc3ccccc3C)cc2C1=O	0.801
Cc1ccccc1C(=O)NNC(=O)c1cccc(Br)c1	12.8
Cc1ccc(-n2ncc3c2CC(C)(C)CC3NC(=O)CCc2ccc(=O)[nH]n2)cc1 (stereo not shown)	-11.2
Cc1nnc(NC(=O)CSc2nccn2Cc2ccc(F)cc2)s1	-6.66
CCCn1c(SCC(=O)Nc2nccs2)nnc1-c1cccnc1	-0.265
CCOC(=O)c1[nH]c(C)c(CCC(=O)[O-])c1C.[Na+]	11.1
O=C1OC(NC(=O)c2ccccc2)C(N2CCOCC2)=C1Cl (stereo not shown)	8.13
COc1ccc(OCCn2cncn2)cc1	12.6
C=CCNCC(O)COc1ccc(C(C)=O)cc1OC.O=C(O)C(=O)O (stereo not shown)	-6.16
CC(C)(C)c1ccc(C(=O)N2CCN(CCNC(=O)C(=O)NCc3ccc(Cl)cc3)CC2)cc1	-41.1
C/C(=N\NC(=O)c1nnn(-c2nonc2N)c1COc1ccc(F)cc1)c1ccc(Cl)cc1	17.3
COc1cc(C(=O)Nc2cc(Cl)ccc2-n2cncn2)ccc1OC(F)F	1.56
CCOc1ccc(NC(=O)CCn2cccc2)cc1	15.1
CCC(=O)Nc1cccc(-c2nnc(-c3cccc(NC(=O)CC)c3)o2)c1	7.83
CC/C(=N\NC(=O)c1ccccc1)c1c(O)n(C2CCCCC2)c(=O)[nH]c1=O	12.3
COC(=O)Cn1c(=NC(=O)C2COc3ccccc3O2)sc2cc(S(N)(=O)=O)ccc21 (stereo not shown)	13.3
Cc1onc(-c2c(Cl)cccc2Cl)c1C(N)=O	10.4
Nc1ccc(CNc2ncn[nH]2)cc1	0.548
COc1ccc(Cl)cc1N1C(=O)[C@@H]2C(c3cccc(OC)c3OC)=NO[C@@H]2C1=O	2.74
CC(C)(C)c1cc(N)n(-c2ccc(C(=O)O)cc2)n1	17.6
S=c1[nH]nc(NCCCN2CCOCC2)s1	7.4

SMILES	hERG current change (%, negative = inhibition) at 10uM [%]
CCOc1ccc(-n2c(=O)[nH]cc(C(=O)N3CCc4ccccc43)c2=O)cc1	-2.98
Cc1ccc(CC2S/C(=N/N=C/c3ccco3)NC2=O)cc1 (stereo not shown)	4.68
COc1cccc(NC(=O)c2ccc(CN3CCc4ccccc4C3)cc2)c1	-35.2
Cc1cccc(-c2nc(C#N)c(NCC3CCCO3)o2)c1 (stereo not shown)	-0.401
CCCS(=O)(=O)c1c(S(=O)(=O)CCC)c2c(N)cccn2c1C(=O)c1ccc(OC)cc1	-13.9
CC1CCCC(NC(=O)CN2CCN(Cc3ccc(Cl)cc3)C2=O)C1C (stereo not shown)	-3.26
CC(=O)c1ccc(NC(=O)C2CCN(S(=O)(=O)c3cccc4nonc34)CC2)cc1	10.6
Cc1ccc(S(=O)(=O)NCCc2c[nH]c3ccccc23)cc1	14.6
CN(Cc1cccc2ncccc12)C(=O)CC1C(=O)NCCN1Cc1ccc(F)cc1 (stereo not shown)	2.13
COC(=O)c1cn(CC(=O)NCc2ccco2)c2ccccc12	-1.02
O=C(Nn1cnnc1)c1ccc(Cl)cc1[N+](=O)[O-]	23.7
O=C(CN(C(=O)c1cccc([N+](=O)[O-])c1)C1CCCCC1)Nc1ccc(Cl)c([N+](=O)[O-])c1	0.211
CCOC(=O)c1nnn(CC(=O)Nc2cccc(OC)c2)c1C(=O)OCC	-15.3
CCOc1ccc2nc(N3CCCC(C(=O)NCC4CCCO4)C3)sc2c1 (stereo not shown)	-19.1
CCOC(=O)c1c(S(=O)(=O)N2CCCC(C(=O)Nc3ccc(C)cn3)C2)c(C)n(C)c1C (stereo not shown)	19.7
Cc1nc2ccccc2n1C1CCN(CC(=O)NCc2ccc(F)cc2)CC1	-58
CC(C)NC(=O)Cn1cnc2c1c(=O)n(C)c(=O)n2C	14.2
Cn1c(=O)cc2c3c(c(N4CCCCC4)ccc31)C(=O)c1ccccc1-2	-63.2
O=c1c2ccccc2nc(-c2ccccc2F)n1-c1ccccc1	9.2
Oc1[nH]c2ccccc2c1N=Nc1ccccc1F	3.96
Cc1cccc(OCCN2C(=O)C(=O)c3cc(C)ccc32)c1	-2.6
CC1CCCCC12NC(=O)N(CC(=O)Nc1ccc(S(=O)(=O)Nc3ncccn3)cc1)C2=O (stereo not shown)	6.88
